Source: article PMC4336329 (PLoS ONE, 2015)
About 2,200 (0.71%) of roughly 310,000 compounds showed an effect of 50% or more. Effects have a minus sign here. The list shows a part of the results.

molecular target: human ether-à-go-go-related gene (hERG) potassium channel (human, UniProt Q12809); assay: primary screen, population patch clamp on CHO cells stably expressing hERG
Sequence (Q12809 whole entry, looked up): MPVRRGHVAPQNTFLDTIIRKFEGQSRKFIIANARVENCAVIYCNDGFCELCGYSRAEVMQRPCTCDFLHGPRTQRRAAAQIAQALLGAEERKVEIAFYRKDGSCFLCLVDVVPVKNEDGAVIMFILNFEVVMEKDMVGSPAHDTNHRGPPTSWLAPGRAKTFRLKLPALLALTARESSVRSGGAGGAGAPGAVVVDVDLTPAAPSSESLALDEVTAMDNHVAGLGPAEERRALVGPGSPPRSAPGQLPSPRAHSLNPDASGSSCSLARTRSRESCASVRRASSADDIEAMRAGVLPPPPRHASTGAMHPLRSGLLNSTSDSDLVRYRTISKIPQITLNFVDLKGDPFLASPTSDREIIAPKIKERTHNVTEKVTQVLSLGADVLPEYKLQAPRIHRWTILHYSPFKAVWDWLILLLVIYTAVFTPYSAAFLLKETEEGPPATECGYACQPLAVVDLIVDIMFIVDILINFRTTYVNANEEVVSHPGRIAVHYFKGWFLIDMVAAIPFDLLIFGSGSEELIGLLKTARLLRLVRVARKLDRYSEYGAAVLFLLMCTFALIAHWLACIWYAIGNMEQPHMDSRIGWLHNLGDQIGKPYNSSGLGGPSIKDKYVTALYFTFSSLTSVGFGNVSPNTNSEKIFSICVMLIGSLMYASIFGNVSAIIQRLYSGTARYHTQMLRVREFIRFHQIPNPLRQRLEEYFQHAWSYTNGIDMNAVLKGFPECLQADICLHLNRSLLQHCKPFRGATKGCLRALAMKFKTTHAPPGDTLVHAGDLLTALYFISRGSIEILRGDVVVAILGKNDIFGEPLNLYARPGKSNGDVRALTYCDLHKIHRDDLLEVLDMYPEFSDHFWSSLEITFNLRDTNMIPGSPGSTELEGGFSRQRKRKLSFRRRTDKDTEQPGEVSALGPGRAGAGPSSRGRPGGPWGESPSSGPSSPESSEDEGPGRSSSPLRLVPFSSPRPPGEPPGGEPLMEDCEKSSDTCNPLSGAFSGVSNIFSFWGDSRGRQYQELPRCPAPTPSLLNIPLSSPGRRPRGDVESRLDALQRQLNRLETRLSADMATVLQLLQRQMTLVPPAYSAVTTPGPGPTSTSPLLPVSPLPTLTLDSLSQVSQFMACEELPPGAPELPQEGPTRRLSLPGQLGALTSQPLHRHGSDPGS

First: CC(Sc1nc2cc([N+](=O)[O-])ccc2n1-c1cccc(C(F)(F)F)c1)C(=O)NC(N)=O (centres unmarked)
Second: Cc1ccc(Sc2ncccc2C(=O)NCc2cc([N+](=O)[O-])ccc2O)c(C)c1
The “hERG current change (%, negative = inhibition) at 1uM” value of the first is higher: 17.5% for the first, 16.4% for the second.

Going from CCN1CCCC1CNC(=O)c1ccc(CS(=O)(=O)c2ccccc2C)o1 (centres unmarked) to CCC1CCCCN1S(=O)(=O)c1ccccc1 (centres unmarked), the “hERG current change (%, negative = inhibition) at 1uM” value falls from 7.63% to 3.47%.

First: CCOC(=O)Cn1c(=O)oc2cc(S(=O)(=O)N(C)c3cccc(C)c3)ccc21
Second: CCN(c1ccc(C)cc1C)S(=O)(=O)c1nnc(NC(=O)c2ccco2)s1
The “hERG current change (%, negative = inhibition) at 1uM” value of the first is lower: -1.77% for the first, 10% for the second.

First: CCn1ccnc1CN1CCC(n2nccc2NC(=O)c2ccccc2OC)CC1
Second: COc1ccc2ccccc2c1CN1CCN(C(=O)c2ccco2)CC1.O=C(O)C(=O)O
The “hERG current change (%, negative = inhibition) at 1uM” value of the first is lower: -64.9% for the first, 0.376% for the second.

First: O=C(Nc1ccccc1N1CCCC1)c1cc(S(=O)(=O)N2CCOCC2)ccc1Cl
Second: CC(=O)Nc1cc(C(=O)N2CCC3(CC2)OCCO3)ccc1S(=O)(=O)c1ccc(C)cc1
The “hERG current change (%, negative = inhibition) at 1uM” value of the first is lower: -9.58% for the first, 4.9% for the second.

Compared with CN1CCN(C(=O)c2ccc(N3CCCC3=O)cc2)CC1, COc1cccc(C(=O)Nc2ccc(N3CCN(C(=O)c4ccco4)CC3)cc2)c1 is lower in “hERG current change (%, negative = inhibition) at 1uM” value: 16.4% for the first, 10.1% for the second.

Going from Cn1c2ccccc2c(=O)c2cc(C#Cc3cccc(N)c3)ccc21 to COc1ccc(Cn2c(-c3ccco3)nc3oc4ccccc4c(=O)c3c2=O)cc1, the “hERG current change (%, negative = inhibition) at 1uM” value falls from 16% to 0.85%.

First: CC(C)n1nc(C(=O)NNC(=O)c2ccncc2)c2ccccc2c1=O
Second: COc1ccc(/C=C2\SC(=S)N(CCCC(=O)NNC(=O)c3ccccc3O)C2=O)cc1
The “hERG current change (%, negative = inhibition) at 1uM” value of the first is lower: -1.26% for the first, 11.1% for the second.

Compared with O=C(NCCc1ccccc1F)C(=O)Nc1nccs1, Cc1cc(C(=O)NCCCc2ccccc2)no1 is lower in “hERG current change (%, negative = inhibition) at 1uM” value: 9.27% for the first, 0.603% for the second.

Going from COc1cnn(-c2ccc(F)cc2)c(=O)c1Br to Br.COc1ccccc1N1Cc2ccccc2C1, the “hERG current change (%, negative = inhibition) at 1uM” value falls from 19.5% to -5.51%.

Going from CN(NS(=O)(=O)c1ccccc1)c1nc2ccccc2nc1C(F)(F)F to CCCCNc1nc2c(-c3ccccc3)nnn2c2ccccc12, the “hERG current change (%, negative = inhibition) at 1uM” value rises from 15.1% to 17.8%.

Going from CCn1cc(/C=C(\NC(=O)c2cc(OC)c(OC)c(OC)c2)C(=O)NCCN2CCOCC2)c2ccccc21 to COc1ccc(NC(=S)NCCc2ccccc2OC)c(OC)c1, the “hERG current change (%, negative = inhibition) at 1uM” value falls from 6.64% to 3.65%.

First: Cc1ccc(OCC(=O)Nc2ccc3c(c2)nc2n3CCOC2)cc1
Second: COC(=O)c1ccc(NC(=O)C2CC(=O)N(c3ccc(C)cc3)C2)cc1 (centres unmarked)
The “hERG current change (%, negative = inhibition) at 1uM” value of the first is lower: -8.72% for the first, 11% for the second.

First: CC(=O)Nc1ccc(NS(=O)(=O)c2cc(-c3cnc(C4CC4)o3)ccc2C)cc1
Second: COc1ccc(S(=O)(=O)Nc2ccc(Cc3ccncc3)cc2)cc1OC
The “hERG current change (%, negative = inhibition) at 1uM” value of the first is higher: 15.5% for the first, 7.28% for the second.

Going from CCn1c(C)c2c([n+]1CC)CC(C)(C)CC2=O.[I-] to CCn1nnc(NC(=O)c2ccccc2Br)n1, the “hERG current change (%, negative = inhibition) at 1uM” value rises from 4.67% to 24%.

Going from O=C1CN(C(=O)COc2ccc(Cl)cc2Cl)c2ccccc2N1 to Cn1c(=O)n(CCOc2ccccc2Cl)c2ccccc21, the “hERG current change (%, negative = inhibition) at 1uM” value falls from 20.3% to -10.5%.

First: CN(C/N=C(\N)N[N+](=O)[O-])S(=O)(=O)c1ccccc1
Second: CCOC(=O)/C=C/C(=O)N1CCc2ccccc21
The “hERG current change (%, negative = inhibition) at 1uM” value of the first is higher: 12% for the first, 7.83% for the second.

First: CC(C)C(C(=O)OCC(=O)c1ccccc1)N1C(=O)C2C3C=CC(C3)C2C1=O (centres unmarked)
Second: Cc1cccc(C)c1OCC(=O)N1CCc2ccccc2C1
The “hERG current change (%, negative = inhibition) at 1uM” value of the first is lower: 8.74% for the first, 14.2% for the second.

Going from O=C(CN(Cc1ccccc1)C(=O)c1cccc([N+](=O)[O-])c1)Nc1c(Cl)cc(Cl)cc1Cl to CS(=O)(=O)N(Cc1ccccc1Cl)c1ccc(C(=O)NCc2cccnc2)cc1, the “hERG current change (%, negative = inhibition) at 1uM” value falls from 3.33% to 2.64%.

Going from COc1ccc(C(=O)CNC2=NCCC2)cc1.Cl to CCCc1cc(=O)n2[nH]c(NCc3ccc(OC)cc3)nc2n1, the “hERG current change (%, negative = inhibition) at 1uM” value rises from 5.6% to 13.1%.

First: O=C(Nc1ccc(Br)cc1)c1ccccc1Br
Second: CCc1ccc(NC(=O)c2ccc3nc(N)sc3c2)cc1
The “hERG current change (%, negative = inhibition) at 1uM” value of the first is higher: 16.9% for the first, 2.5% for the second.

Compared with C=C(C)Cn1c(CCCNC(=O)CCC)nc2ccccc21, Cc1cc(C)n2ncc(/C(N)=N/OC(=O)c3ccccc3F)c2n1 is lower in “hERG current change (%, negative = inhibition) at 1uM” value: 8.54% for the first, 7.6% for the second.

Going from COc1ccc(C(=O)Nc2cc3c4c(c2)CC(=O)N4CCC3)c(OC)c1 to CC(=O)c1sc(NC(=O)c2ccc3c(c2)OCO3)nc1C, the “hERG current change (%, negative = inhibition) at 1uM” value falls from 4.94% to 1.49%.

First: Cc1ccc(NC(=O)C(C)Sc2nnc(-c3cccnc3)n2-c2ccccc2)cc1 (centres unmarked)
Second: Cc1ccccc1-c1ccc(=O)n(CC(=O)Nc2ccc(-n3cnnn3)cc2)n1
The “hERG current change (%, negative = inhibition) at 1uM” value of the first is lower: -86.2% for the first, -1.49% for the second.

Compared with CCc1ccccc1Nc1nc(-c2cccnc2)cs1, O=C(N/N=C/c1cn(-c2ccccc2)nc1-c1cc2ccccc2o1)c1cccnc1 is lower in “hERG current change (%, negative = inhibition) at 1uM” value: 10.5% for the first, 2.8% for the second.

Going from COc1ccc(Cl)cc1C(Nc1cccnc1)c1ccc2cccnc2c1O (centres unmarked) to CC1=CC(=Nc2c(C)n(C)n(-c3ccccc3)c2=O)C=CC1=O, the “hERG current change (%, negative = inhibition) at 1uM” value falls from 7.36% to -5.17%.

First: Cc1cccn2c(=O)c3cc(C#N)c(=N)n(CCCN4CCOCC4)c3nc12
Second: N#Cc1c(SCC(=O)O)nc(-c2ccccc2)c2c1CCCC2
The “hERG current change (%, negative = inhibition) at 1uM” value of the first is lower: -78.1% for the first, 5.83% for the second.

Going from CSc1nc(C)cc(OCCNS(=O)(=O)c2cc(C)ccc2C)n1 to CC(C)C(NC(=O)c1ccc(C(C)(C)C)cc1)C(=O)NCC1(N(C)C)CCCCC1 (centres unmarked), the “hERG current change (%, negative = inhibition) at 1uM” value rises from 10.2% to 11.8%.
